Results taken from patent publication EP2764866A1, “Inhibitors of nedd8-activating enzyme” (IP Gesellschaft für Management mbH, priority 2013, dated 2014).
Like-named read-outs stand apart in the source and are kept apart here.

Key:
[1] = Pharmacokinetics of Compound [1] in Phase I and II studies; details: 500 mg/day on a 5 days on/2 days off dosing schedule
[2] = test system: 3T3-CD74-ROS tumor xenograft; details: for tumor growth inhibition / Tumor regression: oral, 10 days

Compound	inter-subject coefficient of variation (CV%) for AUC [1]	tumor growth inhibition ([2]; 20 mg/kg/day group (10 mg/kg BID)) [%]	tumor growth inhibition ([2]; 40 mg/kg/day group (20 mg/kg BID)) [%]	Tumor regression ([2]; 80 mg/kg/day group (40 mg/kg BID)) [%]	Tumor regression ([2]; 160 mg/kg/day group (80 mg/kg BID)) [%]	ROS phosphorylation in the 3T3-CD74-ROS tumors ([2]; 7 hours post last oral administration, all treatment groups, ELISA)
CN1CCN(c2ccc3nc(-c4c(N)c5c(F)cccc5[nH]c4=O)[nH]c3c2)CC1 [Compound [1]]	around 50%					
C[C@@H](Oc1cc(-c2cnn(C3CCNCC3)c2)cnc1N)c1c(Cl)ccc(F)c1Cl [Crizotinib, 3-[(R)-1-(2,6-dichloro-3-fluoro-phenyl)-ethoxy]-5-(1-piperidin-4-yl-1-H -pyrazol-4-yl)-pyridin-2-ylamine]		54	78	61	94	significant inhibition
